Here are results for seven molecules from article PMC1914345.

The chains behind the UniProt entries cited, without tags or fusion partners.
UniProt P34148: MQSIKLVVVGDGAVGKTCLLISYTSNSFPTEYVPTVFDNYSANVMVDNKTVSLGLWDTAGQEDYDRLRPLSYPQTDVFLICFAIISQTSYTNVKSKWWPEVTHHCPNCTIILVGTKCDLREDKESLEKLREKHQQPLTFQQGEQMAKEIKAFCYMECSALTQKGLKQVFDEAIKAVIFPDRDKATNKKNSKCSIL
UniProt P34149: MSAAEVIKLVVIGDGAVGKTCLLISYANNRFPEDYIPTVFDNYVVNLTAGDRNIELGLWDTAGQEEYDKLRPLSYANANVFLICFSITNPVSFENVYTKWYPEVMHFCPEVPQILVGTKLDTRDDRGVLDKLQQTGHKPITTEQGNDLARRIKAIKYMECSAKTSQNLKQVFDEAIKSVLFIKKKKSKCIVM
UniProt P34150: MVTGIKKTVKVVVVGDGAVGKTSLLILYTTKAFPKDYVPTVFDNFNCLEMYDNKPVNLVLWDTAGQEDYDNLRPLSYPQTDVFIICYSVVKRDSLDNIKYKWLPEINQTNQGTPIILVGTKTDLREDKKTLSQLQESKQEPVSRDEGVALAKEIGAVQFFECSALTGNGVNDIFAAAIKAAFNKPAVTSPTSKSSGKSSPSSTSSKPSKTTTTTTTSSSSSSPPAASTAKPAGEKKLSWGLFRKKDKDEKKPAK
UniProt Q9GPR7: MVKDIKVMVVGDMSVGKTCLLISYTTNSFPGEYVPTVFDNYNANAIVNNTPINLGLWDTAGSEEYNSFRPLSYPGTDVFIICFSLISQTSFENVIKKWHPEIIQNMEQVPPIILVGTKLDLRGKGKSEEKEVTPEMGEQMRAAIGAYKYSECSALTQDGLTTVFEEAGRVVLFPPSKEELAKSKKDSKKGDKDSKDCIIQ

No constants are given. Whether binding was seen depends on the method and setting. In cells and extracts the contact can be indirect. Some entries that bind do so weakly or less than the wild type. Where a sequence is shown, tags or fusion partners need not be part of it.

T1: GST-RacGEF (GxcDD residues 395-707 containing the RacGEF domain, GST fusion) (Dictyostelium discoideum) (UniProt Q1ZXH8)
T1 sequence: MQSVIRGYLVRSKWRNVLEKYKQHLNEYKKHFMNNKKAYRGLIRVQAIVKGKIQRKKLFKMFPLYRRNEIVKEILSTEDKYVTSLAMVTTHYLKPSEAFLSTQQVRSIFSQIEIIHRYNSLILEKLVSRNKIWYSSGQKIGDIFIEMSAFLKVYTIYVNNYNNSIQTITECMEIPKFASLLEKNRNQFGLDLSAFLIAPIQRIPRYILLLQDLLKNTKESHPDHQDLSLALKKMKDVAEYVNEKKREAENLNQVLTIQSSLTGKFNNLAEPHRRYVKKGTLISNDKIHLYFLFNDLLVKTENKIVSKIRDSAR

B1: GFP-RacE (protein, UniProt Q23862 1-223)
chain: MSEDQGSGATRVKLVVVGDGAVGKTCLLICYAQNDFPVDYVPTVFENYTATRKRGNEDIKVHLWDTAGQEEYDRLRPLSYPGADVVLLCFSTISQSSYEAIRDKWAPEVNHYIPDVPSILVGTKIDLREQQHPDPNSGKFEPITADMGISMQKQIKAKKYLEVSAKTRQGLEEVFSAAIEIVLESRGMDKKSQDGSSSASGVPSGDKPTKGKAGKKKSGCIIL
B2: GFP-RacI (protein, UniProt Q9GPR2 1-205)
chain: MQKSYIKLLVLGDSKTGKTTMMMTYSTGSFPTGYVPSHVDATSLDIEYNKQVCHVGFWDSSALAEFDNTRPSTYPNTNVIILCFSIDSPTSFENVSKKWIPEIRQYAPSIHTPIILLGTKCDLREDENTINLLKENNQMPPISYKQGLALSKEIKATMYLECSSLCNQGVNEIFKQVVRCHLYCKDGVLNDPTTTTSNTSKCIIQ

The target in this assay is T1, GST-RacGEF (GxcDD residues 395-707 containing the RacGEF domain, GST fusion) (Dictyostelium discoideum). In words: pull-down; GST-RacGEF on glutathione-sepharose beads incubated 3 hrs at 4°C with lysates of AX2 cells expressing GFP-Rac fusions (25 mM Tris pH 7.5, 150 mM NaCl, 5 mM EDTA, 0.5% Triton X-100, 1 mM NaF, 0.5 mM Na3VO4, 1 mM DTT); eluates immunoblotted with a GFP monoclonal antibody; only the target purified.
As for GFP-Rac1a (from UniProt P34144 1-194), the binding result is on record as “binds”.

As to GFP-RacB (from UniProt P34148 1-195), the binding result is “no binding”.

Turning to GFP-RacC (from UniProt P34149 1-192), the binding result is listed as “binds”.

As to GFP-RacD (from UniProt P34150 1-254), the binding entry is given as “no binding”.

For the molecule GFP-RacH (from UniProt Q9GPR7 1-200), the binding entry is “binds”.

For the molecule B1, the binding result was “binds”.

Take B2: the binding entry is reported as “binds”.
